According to the supplement of paper PMC12230231:

test system: SIVsab (simian immunodeficiency virus of sabaeus monkeys), single-cycle GFP reporter, in CRFK cells; experiment: enrichment among uninfected cells over input (fold); higher = stronger restriction; settings: library: human / rhesus combinations
Experimental: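 Pools of CRFK cells expressing variants of the TRIM5α v1 loop were challenged with the single-cycle reporter, sorted by GFP and sequenced; mean of two replicates.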

Row | Sequence | enrichment
1 | MASGILVNVKEEVTCPICLELLTQPLSLDCGHSFCQACLTANHKKSMLDKGESSCPVCRISYQPENIRPNRHVANIVEKLREVKLSPEGQKVDHCARHGEKLLLFCQEDGKVICWLCERSQEHRGHHTFLTEEVAREYQVKLQAALEMLRQKQQEAEELEADIREEKASWKTQIQYDKTNVLADFEQLRDILDWEESNELQNLEKEEEDILKSLTNSETEMVQQTQSLRELISDLEHRLQGSVMELLQGVDGVIKRTENVTLKKPETFPKNQRRVFRAPDLKGMLEVFRELTDVRRYWVDVTVAPNNISCAVISEDKRQVSSPKPQIIYGARGTRFTFPSFVNFNYCTGILGSQSITSGKHYWEVDVSKKTAWILGVCAGFQPDAMCNIEKNENYQPKYGYWVIGLEEGVKCSAFQDSSFHTPSVPFIVPLSVIICPDRVGVFLDYEACTVSFFNITNHGFLIYKFSHCSFSQPVFPYLNPRKCGVPMTLCSPSS [human TRIM5α, 330-340 = GARGTRFTFPSFV] | 0.221 ± 0.15
2 | MASGILVNVKEEVTCPICLELLTQPLSLDCGHSFCQACLTANHKKSMLDKGESSCPVCRISYQPENIRPNRHVANIVEKLREVKLSPEGQKVDHCARHGEKLLLFCQEDGKVICWLCERSQEHRGHHTFLTEEVAREYQVKLQAALEMLRQKQQEAEELEADIREEKASWKTQIQYDKTNVLADFEQLRDILDWEESNELQNLEKEEEDILKSLTNSETEMVQQTQSLRELISDLEHRLQGSVMELLQGVDGVIKRTENVTLKKPETFPKNQRRVFRAPDLKGMLEVFRELTDVRRYWVDVTVAPNNISCAVISEDKRQVSSPKPQIIYQARGTRYTFQTFVNFNYCTGILGSQSITSGKHYWEVDVSKKTAWILGVCAGFQPDAMCNIEKNENYQPKYGYWVIGLEEGVKCSAFQDSSFHTPSVPFIVPLSVIICPDRVGVFLDYEACTVSFFNITNHGFLIYKFSHCSFSQPVFPYLNPRKCGVPMTLCSPSS [human TRIM5α, 330-340 = QARGTRYTFQTFV] | 1 ± 0.44
3 | MASGILVNVKEEVTCPICLELLTQPLSLDCGHSFCQACLTANHKKSMLDKGESSCPVCRISYQPENIRPNRHVANIVEKLREVKLSPEGQKVDHCARHGEKLLLFCQEDGKVICWLCERSQEHRGHHTFLTEEVAREYQVKLQAALEMLRQKQQEAEELEADIREEKASWKTQIQYDKTNVLADFEQLRDILDWEESNELQNLEKEEEDILKSLTNSETEMVQQTQSLRELISDLEHRLQGSVMELLQGVDGVIKRTENVTLKKPETFPKNQRRVFRAPDLKGMLEVFRELTDVRRYWVDVTVAPNNISCAVISEDKRQVSSPKPQIIYGARGTRYTFPTFVNFNYCTGILGSQSITSGKHYWEVDVSKKTAWILGVCAGFQPDAMCNIEKNENYQPKYGYWVIGLEEGVKCSAFQDSSFHTPSVPFIVPLSVIICPDRVGVFLDYEACTVSFFNITNHGFLIYKFSHCSFSQPVFPYLNPRKCGVPMTLCSPSS [human TRIM5α, 330-340 = GARGTRYTFPTFV] | 0.285 ± 0.2
4 | MASGILVNVKEEVTCPICLELLTQPLSLDCGHSFCQACLTANHKKSMLDKGESSCPVCRISYQPENIRPNRHVANIVEKLREVKLSPEGQKVDHCARHGEKLLLFCQEDGKVICWLCERSQEHRGHHTFLTEEVAREYQVKLQAALEMLRQKQQEAEELEADIREEKASWKTQIQYDKTNVLADFEQLRDILDWEESNELQNLEKEEEDILKSLTNSETEMVQQTQSLRELISDLEHRLQGSVMELLQGVDGVIKRTENVTLKKPETFPKNQRRVFRAPDLKGMLEVFRELTDVRRYWVDVTVAPNNISCAVISEDKRQVSSPKPQIIYGAPGTLYTFPTFVNFNYCTGILGSQSITSGKHYWEVDVSKKTAWILGVCAGFQPDAMCNIEKNENYQPKYGYWVIGLEEGVKCSAFQDSSFHTPSVPFIVPLSVIICPDRVGVFLDYEACTVSFFNITNHGFLIYKFSHCSFSQPVFPYLNPRKCGVPMTLCSPSS [human TRIM5α, 330-340 = GAPGTLYTFPTFV] | 0.43 ± 0.027
5 | MASGILVNVKEEVTCPICLELLTQPLSLDCGHSFCQACLTANHKKSMLDKGESSCPVCRISYQPENIRPNRHVANIVEKLREVKLSPEGQKVDHCARHGEKLLLFCQEDGKVICWLCERSQEHRGHHTFLTEEVAREYQVKLQAALEMLRQKQQEAEELEADIREEKASWKTQIQYDKTNVLADFEQLRDILDWEESNELQNLEKEEEDILKSLTNSETEMVQQTQSLRELISDLEHRLQGSVMELLQGVDGVIKRTENVTLKKPETFPKNQRRVFRAPDLKGMLEVFRELTDVRRYWVDVTVAPNNISCAVISEDKRQVSSPKPQIIYGARGTRYTFQSFTNFNYCTGILGSQSITSGKHYWEVDVSKKTAWILGVCAGFQPDAMCNIEKNENYQPKYGYWVIGLEEGVKCSAFQDSSFHTPSVPFIVPLSVIICPDRVGVFLDYEACTVSFFNITNHGFLIYKFSHCSFSQPVFPYLNPRKCGVPMTLCSPSS [human TRIM5α, 330-340 = GARGTRYTFQSFT] | 0.0801 ± 0.045
6 | MASGILVNVKEEVTCPICLELLTQPLSLDCGHSFCQACLTANHKKSMLDKGESSCPVCRISYQPENIRPNRHVANIVEKLREVKLSPEGQKVDHCARHGEKLLLFCQEDGKVICWLCERSQEHRGHHTFLTEEVAREYQVKLQAALEMLRQKQQEAEELEADIREEKASWKTQIQYDKTNVLADFEQLRDILDWEESNELQNLEKEEEDILKSLTNSETEMVQQTQSLRELISDLEHRLQGSVMELLQGVDGVIKRTENVTLKKPETFPKNQRRVFRAPDLKGMLEVFRELTDVRRYWVDVTVAPNNISCAVISEDKRQVSSPKPQIIYQAPGTRYTFPSFVNFNYCTGILGSQSITSGKHYWEVDVSKKTAWILGVCAGFQPDAMCNIEKNENYQPKYGYWVIGLEEGVKCSAFQDSSFHTPSVPFIVPLSVIICPDRVGVFLDYEACTVSFFNITNHGFLIYKFSHCSFSQPVFPYLNPRKCGVPMTLCSPSS [human TRIM5α, 330-340 = QAPGTRYTFPSFV] | 0.191 ± 0.084

same assay, conditions: library: insertions and deletions

Row | Sequence | enrichment
7 | MASGILVNVKEEVTCPICLELLTQPLSLDCGHSFCQACLTANHKKSMLDKGESSCPVCRISYQPENIRPNRHVANIVEKLREVKLSPEGQKVDHCARHGEKLLLFCQEDGKVICWLCERSQEHRGHHTFLTEEVAREYQVKLQAALEMLRQKQQEAEELEADIREEKASWKTQIQYDKTNVLADFEQLRDILDWEESNELQNLEKEEEDILKSLTNSETEMVQQTQSLRELISDLEHRLQGSVMELLQGVDGVIKRTENVTLKKPETFPKNQRRVFRAPDLKGMLEVFRELTDVRRYWVDVTVAPNNISCAVISEDKRQVSSPKPQIQIIYGARGTRYQTFVNFNYCTGILGSQSITSGKHYWEVDVSKKTAWILGVCAGFQPDAMCNIEKNENYQPKYGYWVIGLEEGVKCSAFQDSSFHTPSVPFIVPLSVIICPDRVGVFLDYEACTVSFFNITNHGFLIYKFSHCSFSQPVFPYLNPRKCGVPMTLCSPSS [human TRIM5α, 2-codon duplication at 326] | 0.0033 ± 0.00036
8 | MASGILVNVKEEVTCPICLELLTQPLSLDCGHSFCQACLTANHKKSMLDKGESSCPVCRISYQPENIRPNRHVANIVEKLREVKLSPEGQKVDHCARHGEKLLLFCQEDGKVICWLCERSQEHRGHHTFLTEEVAREYQVKLQAALEMLRQKQQEAEELEADIREEKASWKTQIQYDKTNVLADFEQLRDILDWEESNELQNLEKEEEDILKSLTNSETEMVQQTQSLRELISDLEHRLQGSVMELLQGVDGVIKRTENVTLKKPETFPKNQRRVFRAPDLKGMLEVFRELTDVRRYWVDVTVAPNNISCAVISEDKRQVSSPKPQIIYGARGTRFVNFNYCTGILGSQSITSGKHYWEVDVSKKTAWILGVCAGFQPDAMCNIEKNENYQPKYGYWVIGLEEGVKCSAFQDSSFHTPSVPFIVPLSVIICPDRVGVFLDYEACTVSFFNITNHGFLIYKFSHCSFSQPVFPYLNPRKCGVPMTLCSPSS [human TRIM5α, 3-codon deletion at 336] | 0.854 ± 0.49

± gives the standard deviation of the averaged measurements. Restriction of a single-cycle SIVsab GFP reporter by TRIM5α v1-loop variants in CRFK cells. Human variants: read share among cells still uninfected after two challenges over input, higher = gained restriction. Rhesus variants: share among infected cells over input, higher = lost restriction. Reporter dose not given per row. No active / inactive call per row; the paper calls a change when both replicates lie above its controls (mean + 2 SD of stop or wild-type variants, or the top frameshift score). Residues outside the varied loop are taken from Swiss-Prot. The paper reads the human single-substitution scores as noise; they and the rhesus combinations repeat poorly (rank correlation 0.3 to 0.4), indel scores repeat only for the top variants, rhesus substitutions well (0.9).
